First the molecules themselves.
B1: C982 (protein)
chain 1: EVQLVESGGGLVQPGGSLRLSCAASGFTFSNYDMHWVRQPTGGGLEWVSAIGTAGDTYYLASVKGRFTISRENAKNSLSLQMNSLRAGDTAVYYCVRGDTLVQGVIKAYYYYFMDVWGQGITVTVSS
chain 2: DIQMTQSPSSLSASVGDRVTITCRASQNISRYLNWYQQKPGKAPRLLIYAASTLQSGVPSRFSASGSGTDFTLTITNLQPEDFAVYYCQQTYVMPPYTLAQGTKLEIK
B2: C990 (protein)
chain 1: EVQLVESGGGLVRPGGSLRLSCAASGFTVGSNFMSWVRQAPGKGLEWVSLIYSGGGTHYAESVKGRFTISRDKSKNTLYLQMNSLRAEDTAVYYCANQGYYYYMDVWGKGTTVTVS
chain 2: QSALTQPASVSGSPGQSITISCTGTSSDVGAYNYVSWHQHHPGKAPKLIIYDVSNRPSGVSNRFSGSKSGNTASLTISGLQAEDEADYYCTSYTNTTTPWVFGGGTKLTVL
B3: C843 (protein)
chain 1: QVQLVESGGGVVQPGRSLRLSCAASGFTFSRYAMHWVRQAPGKGLEWVAVISYDGSNKYYATSLKGRCTISRDNSKNTLYLQMNSLRAEDTAVYFCAKQIGEYCSGGNCYQGSLDYWGQGTLVTVSS
chain 2: DIQMTQSPSSLSASVGDRVTITCQASQDISNYLNWYQQKPGKAPKLLIYDASDLETGVPSTFSGSGSGTDFTLTISSLQPEDFATYYCQQYDIVPFTFGPGTKVDIK
B4: C984 (protein)
chain 1: QVQLVQSGTEVKKPGDSVQVSCKTSGYSFTGYYIHWVRQAPGQGLEWMGRINPNSGGTNYAQKFQGRVIMTRDTSITTAFMELTRLRYDDTAVYFCAREPIEGVIGGMIVNYYYMDVWGRGTTVTVSS
chain 2: QSALTQPASVSGSPGQSITISCTGTSSDVGGYYYVSWYQQHPGKAPKLMIYDVSSRPSGVSNRFSGSKSGNTASLTISGLQAEDEADYYCSSYTSSNTLVVFGGGTKLTVL
B5: C985 (protein)
chain 1: QVQLVQSGAEVKKPGASVKVSCKASGYIFTGYYMHWVRQAPGQGLEWMGRINPNSGGSRYAEKFQGRVTMTRDTSIITAFMELRGLKSDDTAVYYCAREPIEAVPAGIIVNYYYMDVWGNGTTVTVSS
chain 2: QSALTQPASVSGSPGQSITISCTGTSSDVGGYNYVSWYQQHPGKAPKLMIYDVTSRPSGVSDRFSGSKSGTTASLTISGLQAEDEADYYCSSFTSAFTLVVFGGGTKLTVL
B6: C983 (protein)
chain 1: QVQLVESGGGVVRPGRSLRLSCAASGFTFSKYGMHWVRQAPGKGLECVASIAYDGSDDSYADSVKGRFIISRDNSKNTLYLQMNSLRAADTAVYYCAKVLGSYCSASSCHGQRPDYWGQGTLVTVSS
chain 2: DIQMTQSPSSLSAYVGDRVTITCQASQDISNHLNWYQQKPGKAPNLLIYDASNLETGVPSRFSGSGSGTDFSFTISSLQPEDIATYYCQQYDNVPPWTFGQGTKVEIK
B7: C986 (protein)
chain 1: EVQLVQSGAEVKKPGETLKISCKGSGDSFSNYWIGWVRQSPGKGLEWMAIVYPGDSDARYSPSFQGQVTISADKSVTTAYLKWSSLKASDTAIYYCVRGLPVDWYFDLWGRGTLVTVSS
chain 2: QSVLTQPPSVSGAPEQRVTISCTGSSSNIGAGHDVHWYQQLPGTAPKLLIYNNNNRPSGVPDRFSGSKSGASASLAISGLQAEDEAEYYCQSYDKSLSVLYVLGTGTKVTV
B8: C987 (protein)
chain 1: QVQLQESGPGLVKPSETLSLTCNVSGDIINKYYWSWIRQSPGKGLEWIGYIYYSGTTYYNPSLKSRVTMSVGTSKQQFSLRLTSVTAADTAVYYCARMLSTEWSFNWFDPWGPGTLVTVSS
chain 2: SYELTQPPSVSVSPGQAASITCSGDKLGDKFACWYQQKPGQSPVLVIYQNDKRPTGIPERFSGSNSGNTATLTISGTQAMDEADYFCQAWDSTSASVFGTGTKVTVL
B9: C991 (protein)
chain 1: QVQLQESGPGLVKPSQTLSLTCTVSGGSISSGGYFWSWIRQHPGKGLEWLGYNYYTGTPHYNPSLKSRLVISIDTSKNQFSLKLSSVTAADTAVYYCARGDTFGRGYYFDYWGQGTLVTVSS
chain 2: SYELTQPPSVSVAPGQTARITCGGNNIGSKSVHWYQQKPGQAPVMVVYDDSDRPSGIPERFSGSNSGDTATLTISRVEAGDEADYSCQVWDRSSDHPWVFGGGTKLTVL
B10: C992 (protein)
chain 1: QVQLQESGPGLVKPSQTLSLTCTVSGGSISNGGYFWTWIRQHPVKGLEWIGYIYYSGSPHYNPSLKSRLSISLDTFKNQFSLNLSSVTAADTAVYYCARGDTFGRGYYFDFWGQGTLVTVSS
chain 2: SYELTQPPSVSVAPGQTARITCGGNNIGTNSMHWYQQKPGQAPVLVVFDDSDRPSGIPERFSGSNSGNTATLTISRVEAGDEADYHCQVWDRSSDRPWVFGGGTKLTVL

Recombinant human monoclonal antibodies (heavy:light variable regions). ELISA EC50 on the named antigen, from 10 µg/ml down; lower = stronger. No active / inactive call.

The target of this experiment is SARS-CoV-2 Wuhan-Hu-1 spike receptor-binding domain. The experiment in a line: ELISA binding EC50; higher = weaker binding; ELISA of recombinant human antibody on coated antigen, from 10 µg/ml in fourfold dilutions; four-parameter fit.
Turning to B1, the “ELISA binding EC50” value is 2.56 ng/mL.

Consider B2, for which the “ELISA binding EC50” value is 1.85 ng/mL. The same measure for B3: 1.34 ng/mL. The same measure for B4: 2.76 ng/mL. For B5 the value was 3.67 ng/mL.

For B6, the “ELISA binding EC50” value amounted to 2.11 ng/mL.

Consider B7, for which the “ELISA binding EC50” value stood at 3.36 ng/mL.

With B8, the “ELISA binding EC50” value stood at 3.11 ng/mL. The same measure for B9: 3.46 ng/mL; for B10: 3.24 ng/mL.

These data come from the supplement of paper PMC8277577.
